# Assay results: PubChem BioAssay AID686978 (National Center for Advancing Translational Sciences (NCATS), 2013)
# About 64,000 (15%) of roughly 420,000 compounds were called active. Inconclusive means that the source gave no clear call. Such entries were picked first, then a sample of the others. Calls come from the whole dose curve; as a rule, active = well fitted inhibition curve with a large enough effect; inconclusive = small, poorly fitted or top-dose-only effect; inactive = flat fitted curve, though single readings scatter. No potency is given beside an inconclusive call; the fits are too rough.
# Test: qHTS for Inhibitors of human tyrosyl-DNA phosphodiesterase 1 (TDP1): qHTS in cells in absence of CPT; note: nearly all actives have a fitted effect of over 55% in size
# Details: DT40 Tdp1-/- hTDP1 cells, no CPT, ATP luminescence, 48 h; activity change, negative = growth inhibition: at 46.2 µM (top of the series) unless noted
# Procedure, shortened: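 Compound effects on proliferation are scored in DT40 Tdp1-/-;hTDP1 cells in the absence of CPT. ATP levels (CellTiter-Glo luminescence) are recorded after a ≥48 hr, 37 °C incubation.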
# % is set by controls: 0 for no effect and ±100 for the full control effect; potency is the fitted concentration of half-maximal effect; tags give direction and shape of the fitted curve.
SMILES,"activity change, negative = growth inhibition",Potency
Cc1cc(Oc2ccccc2)nc(SCC(=O)Nc2ccccc2)n1,inactive: -28.7%,
CC(C)(C)c1ccc(S(=O)(=O)c2cnc(SCC(=O)Nc3ccc4c(c3)OCCO4)[nH]c2=O)cc1,inactive: 2.74%,
O=C(c1ccc(C(F)(F)F)cc1)C1CCCN(C(=O)Cn2cncn2)C1 (stereo unspecified),inactive: -21.4%,
CC(CCn1cccn1)NC(=O)c1cc(COc2ccc(F)cc2Cl)on1 (stereo unspecified),inactive: 0.179%,
COc1ccc(-c2noc(C3CCCN(C(=O)c4c(F)cccc4F)C3)n2)cc1OC (stereo unspecified),,"inconclusive [inhibitor, single point]"
CC(C)CC(=O)NCC(c1ccc2c(c1)OCO2)N1CCN(c2ccc(F)cc2)CC1 (stereo unspecified),,active: 25.9 µM
CCOc1cc(C=C2C(=O)c3ccccc3C2=O)ccc1OCC(=O)Nc1ccc(C)cc1,,"inconclusive [inhibitor, single point]"
CC(/C=N/NC(=O)NC1CCCCC1)=C\c1ccccc1,,active: 20.6 µM
Cc1cc(C)cc(NS(=O)(=O)c2cnc(Cl)c(Cl)c2)c1,,"inconclusive [inhibitor, single point]"
COc1ccc(-c2noc(CN(C(=O)c3ccc4c(c3)OCO4)C(C)C)n2)cc1OC,,"inconclusive [inhibitor, partial curve]"
CC(NC(=O)c1ccccc1)C(=O)OCC(=O)c1ccc(Br)cc1 (stereo unspecified),inactive: -1.94%,
Cc1ccc(S(=O)(=O)N2c3ccccc3CC2C)cc1 (stereo unspecified),,"inconclusive [inhibitor, single point]"
CCOC(=O)N1CCN(C(=S)NC(=O)c2ccc(F)cc2)CC1,,"inconclusive [inhibitor, single point]"
O=C(Nc1ccccn1)c1ccc(C(=O)Nc2ccccn2)cc1,inactive: 4.32%,
Cc1ccc2c(c1)CCCN2C(=O)C1CCCO1 (stereo unspecified),,"inconclusive [inhibitor, full curve]"
Cc1ccc(S(=O)(=O)N2CCOCC2)cc1C(=O)OCC(=O)NC1CCCC1,inactive: -4.69%,
Cc1cc(NC(=O)CSc2ccc3nnc(-c4ccc(Cl)cc4)n3n2)no1,,"inconclusive [inhibitor, partial curve, poor fit]"
Cc1nc(SCc2ccccc2F)c2oc3ccccc3c2n1,,active: 13 µM
CCc1nnc(SCC(=O)Nc2cc(OC)ccc2OC)nc1CC,,"inconclusive [inhibitor, single point]"
CSCCC(C(=O)Nc1c(C)cccc1C)n1c(COc2ccc(C)cc2)nc2ccccc21 (stereo unspecified),,active: 9.2 µM
O=S(=O)(c1ccccc1)N1CCC2(CCN(c3cccc(-c4ccccc4)c3)CC2)CC1,inactive: -17.6%,
COc1ccc(CNS(=O)(=O)c2ccc(-n3cnnn3)c(OC)c2)cc1,inactive: -17.6%,
COc1ccc(C2c3ccc4ccccc4c3Oc3ncn4nc(Cc5ccccc5)nc4c32)cc1OC (stereo unspecified),,"inconclusive [inhibitor, full curve, poor fit]"
CCCCCCC(=O)NNC(=O)c1c(O)c2ccccc2n(CCC)c1=O,,"inconclusive [inhibitor, single point]"
COc1cc(C(O)c2nc(-c3cc(F)cc(F)c3)cs2)ccc1F (stereo unspecified),,active: 14.6 µM
CCC(=O)Nc1nn(C)c2nc3c(C)cccc3cc12,,"inconclusive [inhibitor, single point]"

SMILES,"activity change, negative = growth inhibition",Potency
CC1(C)OC(=O)C2=C(C[C@@H](C3CCCCC3)O[C@H]2c2ccc(F)cc2)O1,,"inconclusive [inhibitor, single point]"
Cc1cccc(Cn2c(COc3ccc(Cl)cc3)nc3ccccc32)c1,,active: 16.4 µM
O=C1C[C@H](c2ccccc2)Oc2cc(O)cc(O)c21,inactive: -19.5%,
COc1cccc(CN2CCN(Cc3cc4ccccc4o3)CC2CCO)c1 (stereo unspecified),,"inconclusive [inhibitor, single point]"
Cc1ccc(CCNC(=O)c2cc3n(n2)CCCN(Cc2ccc(C)cc2)C3=O)cc1,,"inconclusive [inhibitor, single point]"
Cn1c(=O)oc2cc(S(=O)(=O)N3CCCC(C(=O)N4CCc5ccccc5C4)C3)ccc21 (stereo unspecified),,active: 14.6 µM
Cc1cc(Cl)ccc1NC(=S)NCc1cccs1,,"inconclusive [inhibitor, partial curve]"
COc1cccc(CNC(=O)COC(=O)C2CCN(c3ccc(C(F)(F)F)cn3)CC2)c1,inactive: -29.3%,
CCOC(=O)c1sc(N2C(=O)C(O)=C(C(=O)c3ccco3)C2c2ccco2)nc1C (stereo unspecified),,"inconclusive [inhibitor, single point]"
CC1CC(C)CN(C(=O)COC(=O)CNC(=O)C23CC4CC(CC(C4)C2)C3)C1 (stereo unspecified),inactive: -4.44%,
S=C(Nc1ccccc1Oc1ccccc1)NC1CCCC1,,active: 18.4 µM
Cc1ccc(-c2c[n+](CC(=O)Nc3ccc(C)cc3C)c3n2CCC3)cc1,,active: 14.6 µM
O=C(O)c1cc(NC(=O)c2ccc(Br)cc2)cc(NC(=O)c2ccc(Br)cc2)c1,inactive: 1.64%,
Fc1ccc(/C=N/Nc2nc3ccccc3[nH]2)cc1F,,"inconclusive [inhibitor, single point]"
CC(=O)Nc1cccc(-n2nnc(SCC(=O)c3ccccc3)n2)c1,,"inconclusive [inhibitor, partial curve, poor fit]"
Cc1ccc(OCCNC(=O)c2cc(C(=O)NCCOc3ccc(C)cc3)cc([N+](=O)[O-])c2)cc1,,"inconclusive [inhibitor, single point]"
COc1ccc(NC(=O)Nc2nnc(-c3ccncc3)s2)cc1,,active: 23.1 µM
CCCCN1C[C@H](C)[C@@H](CC(=O)Nc2ccc(OC)cc2)C1=O,inactive: -4.43%,
C[C@H]1CN([C@@H](C)CO)S(=O)(=O)c2ccc(C#CC3CC3)cc2O[C@H]1CN(C)C(=O)c1cccnc1,inactive: -22.4%,
c1ccc(CN2CCN(c3cnc4ccccc4n3)CC2)cc1,,"inconclusive [inhibitor, single point]"
CC(=O)C1[C@H](N(C)C)CC2C3CC=C4CC(O)CC[C@]4(C)C3CC[C@@]21C (stereo partly specified),inactive: 24.1%,
O=C(Oc1ccc2ccccc2c1Cl)N1CCCCCC1,,"inconclusive [inhibitor, single point]"
Cc1ccc(-c2[nH]c3cc(C(N)=O)ccc3c(=O)c2O)cc1,,active: 18.4 µM
Cc1ccsc1C(=O)N1CCC1(C)C(=O)Nc1cccc(C#N)c1 (stereo unspecified),,"inconclusive [inhibitor, single point]"
CCCCNC(=O)c1ccc2c(c1)C(=O)N(Cc1ccncc1)C2=O,inactive: -11.2%,
CCOc1ccc(-n2c(C)cc(/C=N/N(C)C)c2C)cc1,,active: 7.31 µM

SMILES,"activity change, negative = growth inhibition",Potency
COc1cc(C(=O)Nc2ccc(C)cc2)c2ccccc2n1,,active: 0.731 µM
COCCN1C(=O)CSCC1(C)C(=O)Nc1c(C)cccc1C (stereo unspecified),inactive: 9.83%,
CC(=O)Nc1ccc(CN2CCC2(C)C(=O)NC2CCN(Cc3ccccc3)CC2)cc1 (stereo unspecified),inactive: -6.94%,
OC(CON=C1c2ccccc2-c2ccccc21)CN1CCNCC1 (stereo unspecified),,active: 7.31 µM
O=Cc1ccccc1OCc1nnsc1Cl,,"inconclusive [inhibitor, single point]"
O=C(NCCNC(=O)c1ccc(-c2ccc(Cl)c(Cl)c2)o1)c1cnccn1,,active: 14.6 µM
Cc1ccc(NC(=O)N2CCN(c3ccc(Cl)c(Cl)c3)CC2)cc1,,active: 3.26 µM
C[n+]1ccccc1COc1ccc(C(C)(C)C)cc1,,active: 2.31 µM
COc1ccc(-c2nc(CN3CCC(C(=O)NCCc4ccccc4)CC3)c(C)o2)cc1OC,,"inconclusive [inhibitor, single point]"
CCn1nc(-c2ccccc2)c(-c2ccccc2)c(C(=O)Nc2nc(C)c(C(C)=O)s2)c1=O,,active: 1.64 µM
Cc1c(Cl)ccc2c(C(=O)Nc3cc(C(C)(C)C)on3)cc(-c3ccccn3)nc12,,"inconclusive [inhibitor, single point]"
COc1ccc(CCNC(=O)CN2c3cccc4cccc(c34)S2(=O)=O)cc1OC,,"inconclusive [inhibitor, single point]"
CCCCNc1nc(CC)c2c(c1C#N)CCCC2,,"inconclusive [inhibitor, partial curve]"
Nc1c(C(=O)O)cnn1-c1ccccc1,inactive: -27.1%,
CC1C(=O)N2CCCc3cc(NC(=O)C(=O)NCCCc4ccccc4)cc1c32 (stereo unspecified),,"inconclusive [inhibitor, single point]"
CC(=O)OC(C(=O)Nc1ccccc1)C(C)S(=O)(=O)c1ccccc1 (stereo unspecified),,"inconclusive [inhibitor, single point]"
COc1cc([N+](=O)[O-])cc(/C=N/NC(=O)C(C)Nc2ccccc2C)c1O (stereo unspecified),,active: 18.4 µM
Cc1c(-c2ccccc2)nc2ccccc2c1C(=O)Nc1ccncc1,inactive: -10.5%,
COc1ccc(/C=C/C(=O)c2ccccc2O)cc1,,"inconclusive [inhibitor, partial curve]"
CCN1CCN(S(=O)(=O)c2ccc(F)c(C(=O)Nc3c(F)cc(F)cc3Br)c2)CC1,inactive: 2.23%,
O=C(Nc1sc2c(c1C(=O)Nc1cccc(Cl)c1)CCCC2)c1cccs1,,"inconclusive [inhibitor, partial curve]"
O=C(Nc1ccc(Cl)cn1)c1ccccc1-c1ccccc1,,"inconclusive [inhibitor, partial curve, poor fit]"
Cc1cccc(NC(=O)COC(=O)c2ccccc2-c2nc3ccccc3s2)c1C,,"inconclusive [inhibitor, single point]"
Cc1ccc(NC(=O)CSc2nc(=O)n(Cc3ccco3)c3c2CCC3)cc1F,,"inconclusive [inhibitor, single point]"
